Each structure is given as a SMILES string. Where two headings read alike, the source gives them in different places.

For test [1], the target named is T1, rcII-His8-SdhB (Thermus thermophilus, UniProt Q5SIC0). Put plainly: biochemical.
Test [2] concerns the target T2, wt-rcII (Thermus thermophilus, UniProt Q5SIC0). Briefly: biochemical.
In test [3] the target is T3, rcII-SdhB-His6 (Thermus thermophilus, UniProt Q5SIC0). Put plainly: biochemical.
In another test the target is Native complex II (Thermus thermophilus, UniProt Q5SIB8+Q5SIB9+Q5SIC1). The following applies: 30°C, cited from earlier work.
Test [4] has as its target T1, rcII-His8-SdhB. Put plainly: succinate dehydrogenase activity, DCPIP/1,4-NQ set up. Format: biochemical, T. thermophilus. The following applies: 30°C; read-out: nKi (non-competitive inhibition).
In test [5] the target is T3, rcII-SdhB-His6. The test is described as above. The following applies: 30°C; read-out: nKi (non-competitive inhibition). Format: biochemical, T. thermophilus.
The target of test [6] is T1, rcII-His8-SdhB. The following applies: read-out: cKi (competitive inhibition); 30°C.
Test [7] concerns the target T3, rcII-SdhB-His6. The conditions noted are these: read-out: cKi (competitive inhibition); 30°C.
Test [8] has as its target T2, wt-rcII. The conditions noted are these: read-out: cKi (competitive inhibition); 30°C.
[9] abbreviates: read-out: cKi (competitive inhibition).

Regarding `O=C(O)CC[N+](=O)[O-]` [3-NP, 3-Nitropropionic acid], the Ki on rcII-His8-SdhB [1] was 270 µM; at wt-rcII [2], 200 µM; at rcII-SdhB-His6 [3], 290 µM; at Native complex II (read-out: iKiapp (irreversible inhibition)), 230 µM.

With `CCCCCCCCCc1cc(O)c2ccccc2[n+]1[O-]` [NQNO], the figures for the Ki on rcII-His8-SdhB [4] and on rcII-SdhB-His6 [5] were 77 µM and 80 µM, respectively.

With `O=C(O)CC(=O)O` [Malonate, malonate], the Ki on rcII-His8-SdhB [6] was 55 µM; at rcII-SdhB-His6 [7], 58 µM; on wt-rcII [8] it was 65 µM; at Native complex II (setting [9]), 40 µM.

On to `O=C(O)CC(=O)C(=O)O` [Oxaloacetate], for which the Ki was 85 µM at rcII-His8-SdhB [1], 51 µM on wt-rcII [2], 21 µM at rcII-SdhB-His6 [3] and 17 µM on Native complex II (setting [9]).

The record behind these values is article PMC3538594 (PLoS ONE, 2013).
